From ChEMBL document CHEMBL4888484, “Replenishing the malaria drug discovery pipeline: Screening and hit evaluation of the MMV Hit Generation Library 1 (HGL1) against asexual blood stage Plasmodium falciparum ,using a nano luciferase reporter read-out” (2022) come the findings set out here.

The campaign covered roughly 150,000 compounds. About 540 (0.36%) showed an effect of 50% or more. This is one part of the list.

In this assay the test system is Plasmodium falciparum. The assay can be described thus: Primary screen in NF54 nanoGlo assay, in single point, at 2uM, 72h; a lower Z score goes with more inhibition. Format: functional, Erythrocyte. As to conditions: timepoint 72 hour.
`CC(C)c1cc(C(=O)Nc2cccnc2)no1`: the “% Inhibition” value is on record as 2% and the Z score is -0.2.

Take `COC(=O)[C@@](C)(NCC(=O)N(CCc1ccccc1)Cc1ccccc1)C1CC1`: the “% Inhibition” value is recorded as -11% and the Z score is reported as 2.15.

Take `COc1ccc(CCNC(=O)c2c(-c3ccccc3)c(-c3ccccc3)n[nH]c2=O)cc1OC`: the “% Inhibition” value was -4% and the Z score was found to be 0.68.

`O=C(CN1CCN2CCC[C@H]2C1)Nc1nc(-c2ccc(Br)cc2)cs1`: the “% Inhibition” value is -43% and the Z score turned out to be 5.02.

As for `Cc1nc(C)n(CNC(=O)c2ccc(Br)cc2)n1`, the “% Inhibition” value was found to be 5% and the Z score is -0.61.

In the case of `C[C@@H](CN1CCCCC1)c1ncnn1CC(C)(C)O`, the “% Inhibition” value is -17% and the Z score is given as 2.3.

In the case of `O=C(Nc1ccc(C2OC(=O)N(Cc3ccc(F)cc3)C2C(=O)Nc2cccc(F)c2)cc1)c1ccc(F)cc1` (configuration not stated), the “% Inhibition” value was -16% and the Z score came to 1.58.

On to `Cc1cc(C(=O)NC2(C#N)CCCC2)cnn1`, for which the “% Inhibition” value is given as -5% and the Z score was found to be 0.87.

Take `Cc1cnc(-c2nc([C@H]3CCC(=O)NC3)no2)c(C)c1`: the “% Inhibition” value is given as 6% and the Z score was -1.15.

Regarding `COc1ccc(-c2cc3n(n2)[C@H](C(=O)Nc2ccccc2)CC(=O)N3)cc1`, the “% Inhibition” value turned out to be 28% and the Z score is given as -3.22.

Regarding `COc1cc(C(=O)NCCc2csc(N)n2)ccn1`, the “% Inhibition” value is -4% and the Z score was 0.45.

Turning to `Cc1cc(C(=O)Nc2ccc(Cl)cn2)on1`, the “% Inhibition” value was found to be 6% and the Z score was -0.86.

Turning to `COCCNC(=O)CNC(=O)C1CC1c1cccc2ccccc12` (configuration not stated), the “% Inhibition” value came to 32% and the Z score is -3.66.

As for `Nc1cc(Cl)c(C(F)(F)F)cc1N`, the “% Inhibition” value was 32% and the Z score was -4.18.

In the case of `CS(=O)(=O)N1CC[C@H]2[C@H](CCC(=O)N2CCc2ccccc2)C1`, the “% Inhibition” value is -11% and the Z score is listed as 1.74.

As for `CCC(C)C(NC(=O)c1ccc(Cl)cc1)C(=O)N1CCN(c2cnccn2)CC1` (configuration not stated), the “% Inhibition” value is 2% and the Z score is -0.35.

As to `Cc1ccc(N2CCCN(Cc3c(F)cccc3F)C2=O)c(NC(=O)Nc2ccccc2)c1`, the “% Inhibition” value is listed as -10% and the Z score is given as 1.44.

Consider `Cc1ccc(NC(C)C)c(C(=O)N(C)C)c1`, for which the “% Inhibition” value is -6% and the Z score is reported as 0.89.

In the case of `COc1ccc(C(=O)O[C@H](COc2ccc(Cl)cc2)CN2CCCC2)cc1`, the “% Inhibition” value was 7% and the Z score was -1.13.

Regarding `COc1cc(Cl)c(S(=O)(=O)N(C)Cc2nnc[nH]2)cc1OC`, the “% Inhibition” value is on record as -6% and the Z score is given as 0.96.

For the compound `Cc1cnc(N(C)C[C@H](C)C#N)nc1C`, the “% Inhibition” value is recorded as -2% and the Z score is reported as 0.22.

As for `Cc1cc(C)nc(N2CC3CCC2C3)n1` (configuration not stated), the “% Inhibition” value is listed as 3% and the Z score is -0.5.

For `COc1ccc(NC(=O)CN2C(=O)C3CCC(c4ccccc4)CC3C2=O)cc1` (configuration not stated), the “% Inhibition” value is -5% and the Z score turned out to be 0.76.

With `Cc1nccc(N2CCC3(CC2)c2nc[nH]c2CCN3S(C)(=O)=O)n1`, the “% Inhibition” value was -1% and the Z score came out at 0.25.

For `CCN1CCN(S(=O)(=O)c2ccc(OC)c(C(=O)N3CCCCCC3)c2)CC1`, the “% Inhibition” value is -6% and the Z score is recorded as 0.69.

With `Cc1nc[nH]c1CN1C[C@H]2CC[C@@H](C1)N(CC(C)(C)N1CCOCC1)C2`, the “% Inhibition” value is given as -5% and the Z score was 0.5.

As to `CC(C)Cc1nc(O)c(C#N)c2c1CCCC2`, the “% Inhibition” value is recorded as -5% and the Z score is on record as 0.6.

For the compound `C[C@@H]1CN(C(=O)OC(C)(C)C)C[C@H]1C(=O)NCC1(C2CC2)CC1`, the “% Inhibition” value is -11% and the Z score was 2.13.

For `Clc1ccc(CN2CCC[C@@H]2Cn2cncn2)s1`, the “% Inhibition” value is listed as -6% and the Z score amounted to 0.53.

For `CN(C)c1ccc(-c2ccc3nc(C(=O)N4CCCC4)cn3c2)cc1`, the “% Inhibition” value was -13% and the Z score stood at 1.3.

Consider `CNS(=O)(=O)CCNCc1c(C)cc(C)c(CO)c1C`, for which the “% Inhibition” value is given as -6% and the Z score turned out to be 1.27.

Turning to `O=C(c1ccoc1)N1CCC[C@H](c2ncc3n2CCCC3)C1`, the “% Inhibition” value was -10% and the Z score came to 1.62.

`COC(=O)c1ccccc1NC(=O)Cn1cc(-c2ccccc2)c(N(C)C)n1`: the “% Inhibition” value is reported as -5% and the Z score is reported as 0.61.

In the case of `O=C(c1ccno1)N1CCC(Oc2ccccn2)CC1`, the “% Inhibition” value is -9% and the Z score is given as 1.73.

With `CCOc1ccc(C(=O)N2CCN(c3ncc(F)cn3)C(=O)C2)cc1`, the “% Inhibition” value turned out to be 13% and the Z score is given as -1.63.

As to `O=C(Nc1ccn2nccc2c1)c1ccc(F)cc1`, the “% Inhibition” value is reported as -5% and the Z score is given as 0.74.

In the case of `COc1ccc(NC(=O)[C@H](CC(N)=O)NC(=O)CC(C)C)cc1`, the “% Inhibition” value is 6% and the Z score is recorded as -1.03.

`CCc1nccn1CCCNCC[C@@H](C)CCCC(C)(C)O`: the “% Inhibition” value is -8% and the Z score was 0.74.

As for `O=C(CCOc1ccc(Br)cc1F)NCC(F)(F)F`, the “% Inhibition” value is -13% and the Z score was 1.07.

Turning to `O=C(O)c1csc(S(=O)(=O)Nc2cccc3c2CCCC3)c1`, the “% Inhibition” value is reported as -2% and the Z score turned out to be 0.3.

For `O=C(NC1CCN(Cc2ccccc2)CC1)[C@H]1CCCN(c2cnc3nccnc3c2)C1`, the “% Inhibition” value is -10% and the Z score stood at 1.78.

Take `Cc1onc(C(=O)N2CCCN(CC3CC3)[C@H](C(C)C)C2)c1CO`: the “% Inhibition” value is listed as -20% and the Z score amounted to 1.89.

Take `Cn1ccnc(OC2Cc3ccccc3C2)c1=O`: the “% Inhibition” value stood at 8% and the Z score is listed as -1.08.

Take `O=C1c2ccccc2N[C@H](c2ccccc2)N1c1ccccn1`: the “% Inhibition” value was -16% and the Z score stood at 2.75.

In the case of `O=C(CCC(=O)N1CCC(Oc2ccccn2)CC1)c1ccccc1`, the “% Inhibition” value was -8% and the Z score was determined as 1.57.

On to `N#Cc1c[nH]c(C(=O)N2CCN(Cc3cccnc3N)C[C@H](O)C2)c1`, for which the “% Inhibition” value was -7% and the Z score was found to be 0.72.

For the compound `O=C(NCC1CCN(C(=O)c2ccco2)CC1)c1ccoc1`, the “% Inhibition” value was -4% and the Z score was 0.75.

As for `Cc1noc(C)c1S(=O)(=O)N1CCc2ccccc2C1`, the “% Inhibition” value is 8% and the Z score was -1.04.

Regarding `CC1=NN(S(=O)(=O)c2c(C)nn(C)c2C)[C@@](O)(C(F)(F)F)C1`, the “% Inhibition” value was -6% and the Z score was found to be 0.88.

For the compound `CC[C@@H](CNC(=O)c1cccc(-n2cnnn2)c1)N1CCCC1`, the “% Inhibition” value is recorded as -2% and the Z score stood at 0.41.

For the compound `Cc1cc(C(=O)[C@@H](C#N)C(=O)c2c[nH]c3cc(Cl)ccc23)nn1C`, the “% Inhibition” value stood at 3% and the Z score is -0.47.

`CCOCCCNC(=O)c1cc(CC)n[nH]1`: the “% Inhibition” value is -11% and the Z score stood at 2.14.

Consider `COc1cc(C(=O)O[C@@H](C)c2nc(C)no2)ccc1C`, for which the “% Inhibition” value is given as -9% and the Z score is given as 1.31.

For `CC(NC(=O)N(C)CC(O)C1CC1)c1ccc(F)cc1Cl` (configuration not stated), the “% Inhibition” value was -5% and the Z score was 0.45.

For `NC(=O)c1cccnc1N1CCN(Cc2ccc3c(c2)OCO3)C(=O)C1`, the “% Inhibition” value was -13% and the Z score is 2.15.

As to `Cc1nc([C@H](C)NC(=O)CCC(=O)Nc2cccc(O)c2)n[nH]1`, the “% Inhibition” value is listed as -7% and the Z score is recorded as 1.08.
